Assay results taken from PubChem BioAssay AID485367 (National Center for Advancing Translational Sciences (NCATS), 2010).
The campaign covered roughly 330,000 compounds. About 560 (0.17%) were called active. The inconclusive results got no clear call from the source; some entries with a clear call stand among them for comparison. Calls come from the whole dose curve; as a rule, active = well fitted inhibition curve with a large enough effect; inconclusive = small, poorly fitted or top-dose-only effect, or effect the other way; inactive = flat fitted curve, though single readings scatter. No potency is given beside an inconclusive call; the fits are too rough.

target: ATP-dependent 6-phosphofructokinase (Trypanosoma brucei brucei) (UniProt O15648); experiment: qHTS Assay to Find Inhibitors of T. brucei phosphofructokinase; note: nearly all actives have a fitted effect of over 60% in size; settings: T. brucei PFK, ADP-Glo luminescence; series mostly up to 57.5 µM
Sequence of UniProt O15648 (O15648 whole entry, looked up): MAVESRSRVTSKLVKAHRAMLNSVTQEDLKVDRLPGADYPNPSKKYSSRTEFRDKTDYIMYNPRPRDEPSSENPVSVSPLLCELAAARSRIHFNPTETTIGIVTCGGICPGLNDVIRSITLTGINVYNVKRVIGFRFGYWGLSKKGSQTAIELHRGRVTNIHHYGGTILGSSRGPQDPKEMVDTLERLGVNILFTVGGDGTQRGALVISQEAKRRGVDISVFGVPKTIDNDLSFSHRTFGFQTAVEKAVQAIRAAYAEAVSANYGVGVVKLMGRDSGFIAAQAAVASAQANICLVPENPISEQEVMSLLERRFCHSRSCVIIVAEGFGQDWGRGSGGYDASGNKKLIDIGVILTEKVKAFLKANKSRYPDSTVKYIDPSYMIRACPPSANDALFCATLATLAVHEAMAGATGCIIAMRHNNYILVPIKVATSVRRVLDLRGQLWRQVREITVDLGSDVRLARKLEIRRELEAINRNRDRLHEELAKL
Description: NIH Molecular Libraries Probe Production Network [MLPCN] NIH Chemical Genomics Center [NCGC] Grant: 1 R03 MH092153-01 PI Name: Malcolm Walkinshaw, University of Edinburgh NCGC Assay Overview: Various species of the protozoan family Trypanosomatidae are responsible for a range of serious human diseases in tropical and subtropical areas of the world. […] Many of the disorders caused by trypanosomatids are fatal if left untreated, but most currently used drugs are inefficient and toxic. […] Oxidative metabolism involving the mitochondrial tricarboxylic acid cycle and oxidative phosphorylation are repressed in these parasites, and recent RNA interference (RNAi) experiments have shown that even partial depletion of certain individual glycolytic enzymes can lead to the death of cultured parasites. One such glycolytic enzyme, phosphofructokinase (PFK), catalyzes the formation of fructose-1,6-bisphosphate (F1,6BP) and ADP from fructose-6-phosphate (F6P) and ATP, and in many metabolic circumstances makes an important contribution to the control of flux through the glycolytic pathway. As a specific glycolytic target, PFK is particularly attractive as it catalyzes the first irreversible step in glycolysis, and structural and kinetic studies have shown very substantial and essential differences from corresponding host enzymes, allowing for the discovery of parasite-selective inhibitors. The goal of this screen is to find small-molecule inhibitors of T. brucei PFK using a biochemical assay that measures PFK activity as a function of ADP production. A luminescence-based assay for T. brucei PFK activity has been developed which uses luciferase to detect production of ADP. Traditional luciferase-based nucleotide detection reagents rely on ATP production as a direct substrate for the luciferase reaction; however, PFK catalyzes the transfer of a phosphate from ATP to F6P, resulting in the net depletion of ATP. To directly measure the ADP product of the PFK reaction, we used the ADP-Glo detection kit (Promega), which utilizes two separate reactions to 1) deplete all remaining uncatalyzed ATP and 2) convert all remaining ADP to ATP, which is then detected through a traditional luciferase-coupled reaction. Compounds were screened as a concentration-titration series that ranged from 57 uM to 0.7 nM.
NCGC Assay Protocol Summary: NCGC Assay Protocol Summary: Substrate buffer was dispensed into white, solid 1536-well plates at 3uL/well in 0.1M triethanolamine (TEA) buffer, pH 8.0, containing final concentrations of 5 mM MgCl2, 0.01% Tween20, 0.5 mM fructose-6-phosphate (F6P) and 0.1mM ATP. Then, 23 nL of compounds or DMSO were delivered to each well using a pin tool. One uL T. brucei PFK (0.1M TEA, 0.01% Tween20, 0.1% bovine serum albumin (BSA) and 1.25nM PFK, final concentrations) was then dispensed, and plates were incubated at room temperature for 45 min. The luminescent detection reagent, ADP-Glo (Promega), was then added in two steps: the first reagent, ADP-Glo (which converts remaining uncatalyzed ATP), was added at 2.5uL/well and incubated for ten minutes at room temperature, and the second component, Kinase Detection reagent (which converts ADP to ATP as a substrate for luciferase-based luminescence), was added immediately after at 5uL/well, followed by one final ten minute room temperature incubation. The plates were measured on a ViewLux plate reader for luminescent signal using a clear filter with a one second exposure. The %Activity was determined from the corrected luminescence values. As no specific T. brucei PFK inhibitors have been identified in the literature, 1x (1.25nM) and 0x PFK enzyme controls (untreated) were included to normalize %Activity of identified inhibitors; 0x enzyme values corresponded to 100%Activity (full inhibition), while 1x PFK enzyme values were used to normalize 0%Activity (no inhibition). Concentration-response curves were fitted to the signals arising from the resulting luminescence. […]
Potency is the fitted concentration of half-maximal effect; tags give direction and shape of the fitted curve.

SMILES | Potency
O=C(/C=C/c1ccco1)OCC(=O)N1CCCCC1 | inconclusive [falling, partial curve]
O=C(Cc1ccc(Br)cc1)Nc1ccc(S(=O)(=O)NCC2CCCO2)cc1 (centres undefined) | inconclusive [falling, single point]
CCCCc1nc2cc(C(=O)NCCc3cnn(C)c3)ccc2o1 | inconclusive [falling, single point]
Cc1ccc(-c2cc(C(=O)Nc3cccnc3)c3ccccc3n2)o1 | inconclusive [falling, single point]
O=C1CSC(=S)N1N1C(=O)c2cccc([N+](=O)[O-])c2C1=O | inconclusive [activator, full curve]
c1ccc(-c2nc(-c3ccccn3)no2)cc1 | inconclusive [falling, partial curve]
Cc1cc(C)c2c(=O)n(CC(=O)Nc3cccc(F)c3)sc2n1 | active: 7.57 µM
CC(=O)N=c1sc(S(N)(=O)=O)nn1C | inconclusive [falling, partial curve]
O=C(O)c1ccc2nc(C(F)(F)F)[nH]c2c1 | inactive
CC(C)(C)NC(=O)N1c2ccccc2Sc2ccccc21 | inactive
Cc1cc(Br)ccc1SCC(=O)OCC(=O)NCc1ccco1 | inconclusive [falling, single point]
O=C(Cc1cccs1)N1CCCC(c2nc3c(nnn3Cc3cccc(Cl)c3)c(=O)[nH]2)C1 (centres undefined) | inactive
Cc1cccc(-n2c(N)c(C(=O)N3CCN(C)CC3)sc2=S)c1 | active: 12 µM
CC(CC1CC(C)(C)OC1=O)C(=O)Nc1ccc([N+](=O)[O-])cc1 (centres undefined) | inconclusive [falling, partial curve, poor fit]
c1ccn2cc(CSC3=NCCS3)nc2c1 | inactive
Cc1cc(S(=O)(=O)N2CCCC2)ccc1OCC(=O)NCc1ccco1 | inconclusive [falling, single point]
O=C(NCCCc1ccccc1)c1ccc([N+](=O)[O-])cc1Cl | inactive
CCc1oc2ccccc2c1C(=O)CCN1CCCCC1 | inactive
Cn1c(N)c(C(=O)COC(=O)CSc2ccccc2)c(=O)n(C)c1=O | inactive
O=C(CNc1cccc([N+](=O)[O-])c1)NC(=O)NC1CCCCC1 | inconclusive [falling, partial curve]
O=C(NCc1ccc(Cl)cc1)C(=O)NCC1OCCN1S(=O)(=O)c1cccs1 (centres undefined) | inconclusive [falling, single point]
O=C(CSC1=NS(=O)(=O)c2cc(Cl)ccc2N1)Nc1ccccc1F | inconclusive [falling, single point]
Cc1ccc(CN(C)C(=O)c2ccc(S(=O)(=O)N(C)c3ccccc3)cc2)o1 | inactive
COc1cc(NC2c3ncccc3C(=O)N2Cc2ccco2)cc(OC)c1 (centres undefined) | inconclusive [falling, single point]
O=C(CSc1ccc(Cl)cc1)c1ccco1 | inconclusive [falling, partial curve]

SMILES | Potency
Nc1nc(CN2CCN(Cc3ccccc3)CC2)nc(N2CCCc3ccccc32)n1 | inconclusive [falling, single point]
Cc1ccc(CC(=O)NNC(=O)c2ccncc2)cc1C | inconclusive [falling, partial curve]
c1ccc2nc(-c3nc4ccccc4o3)ccc2c1 | inconclusive [falling, full curve]
CC(C)c1ccc(N=c2c([N+](=O)[O-])nn(-c3ccc4c(c3)OCCO4)n2O)cc1 | inactive
COC(=O)CN1C(=O)S/C(=C/c2ccc(N3CCCCC3)o2)C1=O | inactive
Cc1cccc(N2CCN(C(=S)c3ccc([N+](=O)[O-])cc3)CC2)c1 | inconclusive [falling, partial curve]
N#CC1=C(N)OC2=C(CCC/C2=C/c2ccoc2)C1c1ccoc1 (centres undefined) | inconclusive [falling, single point]
Cc1cc(C)n2nc3nc(N4CCCCC4)nc(-c4ccco4)c3c2n1 | inconclusive [falling, full curve]
CCOP(=O)(OCC)/C(=N/OC(=O)c1ccccc1C)C(N)=O | inactive
CNC(=S)NNC(=O)c1cccn(Cc2ccc(Cl)c(Cl)c2)c1=O | active: 8.49 µM
Cc1cc(Oc2ccc3ccccc3c2)nc(SCC(=O)c2ccccc2)n1 | inconclusive [activator, single point]
NS(=O)(=O)c1ccc(CNC(=O)c2cc(-c3ccccn3)nc3ccc(Cl)cc23)cc1 | inactive
Cc1ccc(-c2cc(C(=O)Nc3ccccn3)c3ccccc3n2)o1 | inconclusive [falling, single point]
COc1ccc(CCNc2ccc(S(N)(=O)=O)cn2)cc1 | inconclusive [falling, single point]
Cc1cc(=O)[nH]c(SCC(=O)Nc2nc3ccccc3s2)n1 | inactive
N#Cc1c(C#N)c(O)c2ccccc2c1O | inconclusive [activator, single point]
CCc1cc2cc3c(cc2nc1SCC(=O)Nc1c[nH]c(=O)[nH]c1=O)OCO3 | inactive
CC(CC(=O)OCC(=O)Nc1ccc2[nH]c(=O)[nH]c2c1)c1ccccc1 (centres undefined) | inconclusive [falling, single point]
Oc1ccc(Cl)cc1C=Nc1ccccc1Br | inactive
CN(C)c1ccc(/C=N/NC(=O)c2ccnn2C)cc1 | inconclusive [falling, partial curve]
Cc1cccc(C(=O)Nc2ccc(N3CCC(CCN4CCOCC4)CC3)c(C(=O)O)c2)c1 | inconclusive [falling, partial curve, poor fit]
NC(=O)c1ccc(NC(=O)CNC(=O)c2sc3ccccc3c2Cl)cc1 | inconclusive [falling, single point]
COc1ccc(N2C(=O)/C(=C/c3cccs3)NC2=S)cc1 | active: 15.1 µM
CN(c1ccccc1)S(=O)(=O)c1ccc(C(=O)NCC(c2ccco2)N2CCCCC2)cc1 (centres undefined) | inactive
